Measured values reported in the antibiotic and cytotoxicity screens of Wong et al. (2023).
This is one part of the list.

Legend:
HSkMC = human skeletal muscle cells; assay: cytotoxicity call (relative viability < 0.9); conditions: 10 µM
HepG2 = assay: cytotoxicity call (relative viability < 0.9); conditions: 10 µM
S. aureus RN4220 = assay: growth inhibition call (relative growth <= 0.2); conditions: 50 µM

Cc1ccc(S(=O)(=O)Nc2ccc3c(c2)CC(=O)N([C@H](C)CO)C[C@@H](C)[C@H](CN(C)S(=O)(=O)c2cccs2)O3)cc1
inactive: cytotoxicity call (HSkMC) | cytotoxicity call (HepG2) | growth inhibition call (S. aureus RN4220)

C[C@@H]1CCCCO[C@@H](CN(C)C(=O)Nc2ccccc2)[C@@H](C)CN([C@H](C)CO)C(=O)c2cc(NC(=O)CCCCCC(=O)Nc3ccccc3N)ccc2O1
inactive: cytotoxicity call (HSkMC) | cytotoxicity call (HepG2) | growth inhibition call (S. aureus RN4220)

CS(=O)(=O)[O-].C[n+]1ccccc1C=NO
inactive: cytotoxicity call (HSkMC) | cytotoxicity call (HepG2) | growth inhibition call (S. aureus RN4220)

Cc1nnc(C(C)C)n1[C@@H]1C[C@H]2CC[C@@H](C1)N2CC[C@H](NC(=O)C1CCC(F)(F)CC1)c1ccccc1
inactive: cytotoxicity call (HSkMC) | cytotoxicity call (HepG2) | growth inhibition call (S. aureus RN4220)

COc1ccc2c3c(n(c2c1)C)[C@H](CO)N(C[C@]13CCN(CC1)C(=O)Nc1cccc(c1)F)C(=O)CN1CCOCC1
inactive: cytotoxicity call (HSkMC) | cytotoxicity call (HepG2) | growth inhibition call (S. aureus RN4220)

C=C(C)[C@H]1CC=C(C)CC1
inactive: cytotoxicity call (HSkMC) | cytotoxicity call (HepG2) | growth inhibition call (S. aureus RN4220)

CCS(=O)(=O)Nc1ccc2c(c1)CC(=O)N2
inactive: cytotoxicity call (HSkMC) | cytotoxicity call (HepG2) | growth inhibition call (S. aureus RN4220)

C[C@H](CO)N1C[C@H](C)[C@H](CN(C)S(=O)(=O)c2cn(C)cn2)OCCCC[C@H](C)Oc2ccc(NC(=O)c3ccncc3)cc2C1=O
inactive: cytotoxicity call (HSkMC) | cytotoxicity call (HepG2) | growth inhibition call (S. aureus RN4220)

Cc1noc(C)c1NC(=O)Nc1ccc2c(c1)C(=O)N([C@H](C)CO)C[C@@H](C)[C@H](CN(C)C(=O)Nc1ccc3c(c1)OCO3)OCCCC[C@@H](C)O2
inactive: cytotoxicity call (HSkMC) | cytotoxicity call (HepG2) | growth inhibition call (S. aureus RN4220)

COc1ccc(NC(=O)Nc2ccc3c(c2)C(=O)N([C@H](C)CO)C[C@H](C)[C@@H](CN(C)C(=O)Nc2cccc4ccccc24)OCCCC[C@@H](C)O3)cc1
inactive: cytotoxicity call (HSkMC) | cytotoxicity call (HepG2) | growth inhibition call (S. aureus RN4220)
